Where a chain is given by its changes, count along the chain named. Some of the results follow.
T1: RBFOX1 RRM RbFoxmut (Fox-RRM*) (Homo sapiens, UniProt Q9NWB1 109-208, R118D;E147R;N151S;E152T)
T1 sequence: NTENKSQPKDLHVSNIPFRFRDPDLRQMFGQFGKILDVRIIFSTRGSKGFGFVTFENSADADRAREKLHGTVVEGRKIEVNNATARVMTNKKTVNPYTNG

B1: AGUAGGU (DNA:RNA)
RNA: GGGAGACCGGAAUUCAGAUUGUCCAGUAGGUUUAAAUCCCGUCGUAGCCACCA
DNA 1: CAATCTGAATTCCGGTCTCCC
DNA 2: TGGTGGCTACGACGGGATT
B2: AGCGGAG (DNA:RNA)
RNA: B1 RNA with U27C, A28G, G30A, U31G
DNA 1: CAATCTGAATTCCGGTCTCCC
DNA 2: TGGTGGCTACGACGGGATT
B3: GUGGCAG (DNA:RNA)
RNA: GGGAGACCGGAAUUCAGAUUGUCCGUGGCAGUUAAAUCCCGUCGUAGCCACCA
DNA 1: CAATCTGAATTCCGGTCTCCC
DNA 2: TGGTGGCTACGACGGGATT
B4: GACACGC (DNA:RNA)
RNA: B1 RNA with A25G, G26A, U27C, G29C, U31C
DNA 1: CAATCTGAATTCCGGTCTCCC
DNA 2: TGGTGGCTACGACGGGATT
B5: UGGAUCA (DNA:RNA)
RNA: B1 RNA with A25U, U27G, G29U, G30C, U31A
DNA 1: CAATCTGAATTCCGGTCTCCC
DNA 2: TGGTGGCTACGACGGGATT
B6: ACAACCC (DNA:RNA)
RNA: B1 RNA with G26C, U27A, G29C, G30C, U31C
DNA 1: CAATCTGAATTCCGGTCTCCC
DNA 2: TGGTGGCTACGACGGGATT
B7: GGUUUUU (DNA:RNA)
RNA: B1 RNA with A25G, A28U, G29U, G30U
DNA 1: CAATCTGAATTCCGGTCTCCC
DNA 2: TGGTGGCTACGACGGGATT
B8: ACCGGUU (DNA:RNA)
RNA: B1 RNA with G26C, U27C, A28G, G30U
DNA 1: CAATCTGAATTCCGGTCTCCC
DNA 2: TGGTGGCTACGACGGGATT
B9: GAAGUCA (DNA:RNA)
RNA: B3 RNA with U26A, G27A, C29U, A30C, G31A
DNA 1: CAATCTGAATTCCGGTCTCCC
DNA 2: TGGTGGCTACGACGGGATT
B10: AGCUGUG (DNA:RNA)
RNA: B1 RNA with U27C, A28U, G30U, U31G
DNA 1: CAATCTGAATTCCGGTCTCCC
DNA 2: TGGTGGCTACGACGGGATT
B11: AUCUGUG (DNA:RNA)
RNA: B1 RNA with G26U, U27C, A28U, G30U, U31G
DNA 1: CAATCTGAATTCCGGTCTCCC
DNA 2: TGGTGGCTACGACGGGATT
B12: CCGGGAU (DNA:RNA)
RNA: B3 RNA with G25C, U26C, C29G, G31U
DNA 1: CAATCTGAATTCCGGTCTCCC
DNA 2: TGGTGGCTACGACGGGATT
B13: UGUGAAA (DNA:RNA)
RNA: B1 RNA with A25U, A28G, G29A, G30A, U31A
DNA 1: CAATCTGAATTCCGGTCTCCC
DNA 2: TGGTGGCTACGACGGGATT
B14: GGUGGCA (DNA:RNA)
RNA: B1 RNA with A25G, A28G, G30C, U31A
DNA 1: CAATCTGAATTCCGGTCTCCC
DNA 2: TGGTGGCTACGACGGGATT
B15: GGCGACU (DNA:RNA)
RNA: B1 RNA with A25G, U27C, A28G, G29A, G30C
DNA 1: CAATCTGAATTCCGGTCTCCC
DNA 2: TGGTGGCTACGACGGGATT
B16: UGCCUUC (DNA:RNA)
RNA: B1 RNA with A25U, U27C, A28C, G29U, G30U, U31C
DNA 1: CAATCTGAATTCCGGTCTCCC
DNA 2: TGGTGGCTACGACGGGATT
B17: CUGGUCU (DNA:RNA)
RNA: B3 RNA with G25C, C29U, A30C, G31U
DNA 1: CAATCTGAATTCCGGTCTCCC
DNA 2: TGGTGGCTACGACGGGATT
B18: AUGUGGA (DNA:RNA)
RNA: B1 RNA with G26U, U27G, A28U, U31A
DNA 1: CAATCTGAATTCCGGTCTCCC
DNA 2: TGGTGGCTACGACGGGATT
B19: GCUGAUC (DNA:RNA)
RNA: B3 RNA with U26C, G27U, C29A, A30U, G31C
DNA 1: CAATCTGAATTCCGGTCTCCC
DNA 2: TGGTGGCTACGACGGGATT
B20: AUCCGAG (DNA:RNA)
RNA: B3 RNA with G25A, G27C, G28C, C29G
DNA 1: CAATCTGAATTCCGGTCTCCC
DNA 2: TGGTGGCTACGACGGGATT
B21: GCGUGCA (DNA:RNA)
RNA: B3 RNA with U26C, G28U, C29G, A30C, G31A
DNA 1: CAATCTGAATTCCGGTCTCCC
DNA 2: TGGTGGCTACGACGGGATT
B22: GUCGAGC (DNA:RNA)
RNA: B3 RNA with G27C, C29A, A30G, G31C
DNA 1: CAATCTGAATTCCGGTCTCCC
DNA 2: TGGTGGCTACGACGGGATT
B23: CCCCUCG (DNA:RNA)
RNA: B3 RNA with G25C, U26C, G27C, G28C, C29U, A30C
DNA 1: CAATCTGAATTCCGGTCTCCC
DNA 2: TGGTGGCTACGACGGGATT
B24: CGUAGAU (DNA:RNA)
RNA: B1 RNA with A25C, G30A
DNA 1: CAATCTGAATTCCGGTCTCCC
DNA 2: TGGTGGCTACGACGGGATT
B25: GUAUGAU (DNA:RNA)
RNA: B3 RNA with G27A, G28U, C29G, G31U
DNA 1: CAATCTGAATTCCGGTCTCCC
DNA 2: TGGTGGCTACGACGGGATT
B26: CUAGAUU (DNA:RNA)
RNA: B3 RNA with G25C, G27A, C29A, A30U, G31U
DNA 1: CAATCTGAATTCCGGTCTCCC
DNA 2: TGGTGGCTACGACGGGATT
B27: GGGGCUU (DNA:RNA)
RNA: B3 RNA with U26G, A30U, G31U
DNA 1: CAATCTGAATTCCGGTCTCCC
DNA 2: TGGTGGCTACGACGGGATT
B28: AGCAAUG (DNA:RNA)
RNA: B1 RNA with U27C, G29A, G30U, U31G
DNA 1: CAATCTGAATTCCGGTCTCCC
DNA 2: TGGTGGCTACGACGGGATT
B29: ACCGUAU (DNA:RNA)
RNA: B1 RNA with G26C, U27C, A28G, G29U, G30A
DNA 1: CAATCTGAATTCCGGTCTCCC
DNA 2: TGGTGGCTACGACGGGATT
B30: UAUAGGG (DNA:RNA)
RNA: B1 RNA with A25U, G26A, U31G
DNA 1: CAATCTGAATTCCGGTCTCCC
DNA 2: TGGTGGCTACGACGGGATT
B31: GAUGGGG (DNA:RNA)
RNA: B1 RNA with A25G, G26A, A28G, U31G
DNA 1: CAATCTGAATTCCGGTCTCCC
DNA 2: TGGTGGCTACGACGGGATT

molecular target: T1, RBFOX1 RRM RbFoxmut (Fox-RRM*); assay: EMSA; HiTS-Eq, 1 nM pool, 10 min; buffer printed only for the single-RNA assays: 10 mM Tris pH 7.5, 150 mM NaCl, 3.4 mM EDTA, 0.001% NP-40, 30 C; settings: tags: His6 N-terminal (pET28a); label: 5' 32P
Procedure, shortened: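 These values rest on relative association constants, computed from read-count changes of each RNA species versus the control reaction and normalised to the cognate motif. Reads came from free RNA recovered by 8% native PAGE after purified RbFox RRM (wild type or mutant) at increasing concentrations was equilibrated for 10 min in 50 µL with 1 nM of a 5′-radiolabelled pool with 7 randomized nucleotides and DNA-annealed flanks.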

Row | Binder | binding signal
1 | B1 | 0.112 KA relative to UGCAUGU
2 | B2 | 0.119 KA relative to UGCAUGU
3 | B3 | 0.13 KA relative to UGCAUGU
4 | B4 | 0.0716 KA relative to UGCAUGU
5 | B5 | 0.29 KA relative to UGCAUGU
6 | B6 | 0.0801 KA relative to UGCAUGU
7 | B7 | 0.056 KA relative to UGCAUGU
8 | B8 | 0.0694 KA relative to UGCAUGU
9 | B9 | 0.0832 KA relative to UGCAUGU
10 | B10 | 0.173 KA relative to UGCAUGU
11 | B11 | 0.14 KA relative to UGCAUGU
12 | B12 | 0.101 KA relative to UGCAUGU
13 | B13 | 0.105 KA relative to UGCAUGU
14 | B14 | 0.173 KA relative to UGCAUGU
15 | B15 | 0.0902 KA relative to UGCAUGU
16 | B16 | 0.185 KA relative to UGCAUGU

Row | Binder | binding signal
17 | B17 | 0.101 KA relative to UGCAUGU
18 | B18 | 0.0866 KA relative to UGCAUGU
19 | B19 | 0.0965 KA relative to UGCAUGU
20 | B20 | 0.108 KA relative to UGCAUGU
21 | B21 | 0.225 KA relative to UGCAUGU
22 | B22 | 0.0952 KA relative to UGCAUGU
23 | B23 | 0.116 KA relative to UGCAUGU
24 | B24 | 0.142 KA relative to UGCAUGU
25 | B25 | 0.318 KA relative to UGCAUGU
26 | B26 | 0.0904 KA relative to UGCAUGU
27 | B27 | 0.0747 KA relative to UGCAUGU
28 | B28 | 0.0741 KA relative to UGCAUGU
29 | B29 | 0.119 KA relative to UGCAUGU
30 | B30 | 0.0822 KA relative to UGCAUGU
31 | B31 | 0.0852 KA relative to UGCAUGU
